# Data from ChEMBL document CHEMBL1157539, “Thousands of chemical starting points for antimalarial lead identification” (Nature, 2010).
# The full ranking holds about 13,000 compounds; the median of “IFI” is about 4, and the highest 2% start at about 17. This is one part of the list.
# Experiment: GSK_TCMDC: Inhibition Frequency Index (IFI). The number of non-kinase HTS assays where a compound showed > 50 % inhibition, expressed as a percentage of the number of such assays in which the compound was tested (-0 is zero)
# Assay type: functional
row,Structure (SMILES),IFI [%]
1,Nc1nc2c(ncn2COC2COP(=O)(O)OC2)c(=O)[nH]1 (stereo unspecified),1.52
2,O=C(NCC1CCC(CNCCCc2ccccc2)CC1)c1cc(Cl)cc(Cl)c1 (stereo unspecified),4.93
3,Cc1cc(N[C@@H](CC(C)C)C(=O)NCCOc2ccccc2)nc(NCCOc2ccccc2)n1,6.98
4,Brc1ccsc1-c1nc(NC2CCN(Cc3ccccc3)CC2)no1,-0
5,Cc1[nH]c2ccccc2c1C(=O)C(C)Sc1nnc(-c2ccccc2Br)[nH]1 (stereo unspecified),3.08
6,O=C(/C=C/c1ccc(Cl)c(Cl)c1)NC1CCC(CN2CCC(c3cc4ccccc4[nH]3)CC2)CC1 (stereo unspecified),1.48
7,CN(c1ccccc1)S(=O)(=O)c1cccc(NC(=O)c2ccc(-n3ccnc3)c([N+](=O)[O-])c2)c1,17.2
8,COc1ccc(CCN(Cc2cccs2)C(=O)c2cc3sccc3n2C)cc1OC,2.33
9,CC(C)c1ccc(NC(=O)NCC2CCCN(CCCCCNC(=O)/C=C/c3ccc(Cl)c(Cl)c3)C2)cc1 (stereo unspecified),12.1
10,COc1ccccc1Cn1ccnc1SCC(=O)Nc1cc(C(F)(F)F)ccc1Cl,7.14
11,COc1ccc(CC(C)CON2C(N)=NC(N)=NC2(C)C)cc1 (stereo unspecified),4.58
12,Cc1cccc(NC(=O)c2ccc(C(=O)NC3CCN(CC4CCCCC4)CC3)cc2)c1,1.8
13,CSc1ccc(C=CC(=O)NC(=O)c2ccccc2O)cc1,3.47
14,CCC(CCON1C(N)=NC(N)=NC1(C)C)c1ccc(Cl)c(Cl)c1 (stereo unspecified),5.22
15,CC(=O)N(Cc1nc(-c2cc(Cl)c(Cl)s2)cs1)c1c(C)cccc1C,0.68
16,CC(=O)Nc1ccc(OCCN(Cc2ccccc2C(F)(F)F)c2ccc(C#N)c(C(F)(F)F)c2)c(Cl)c1,3.17
17,CC(=O)Nc1ncc(C(=O)Nc2cccc(-c3ccc(-c4nc5cc(C(F)(F)F)ccc5[nH]4)cc3)c2)s1,3.64
18,Cc1ccccc1Nc1nc(NCCCO)c2ccccc2n1,2.11
19,COc1cc2nc(N3CCC(CNC(=O)c4ccc(-c5cccc(C#N)c5)cc4)CC3)nc(N)c2cc1OC,6.31
20,O=C(C=Cc1cccs1)N(CCCn1ccnc1)c1nc2ccc(F)cc2s1,2
21,C=CCOc1ccc2ccccc2c1CNCCCCCCNCc1c(OCC=C)ccc2ccccc12,19.6
22,Cc1ccc(CN2CCCN(Cc3cccc(NC(=O)c4cc5ccccc5s4)c3)CC2)cc1,10.2
23,COc1cc(Nc2ccnc3cc(-c4ccccn4)ccc23)cc(OC)c1OC,4.23
24,CCOC(=O)c1cnc2cc(N3CCCC3)c(Cl)cc2c1OCC,0.75
25,COCCN(C)c1ccc(C(=O)Nc2ccccc2)cc1NS(=O)(=O)Cc1ccccc1,1.96
26,CS(=O)(=O)Cc1ccc(Nc2nccc(-c3c(-c4cccc(NC(=O)c5c(F)cccc5F)c4)nn4ncccc34)n2)cc1,5.8
